According to PMC8141534 (The Journal of Biological Chemistry, 2021):

Key:
[1] = system: Rho, X. campestris; type: biochemical, Xanthomonas campestris; conditions: peptide 50 μM, Rho 50 nM, poly(rC); SD of two to three measurements
[2] = system: Rho, S. enterica; type: biochemical, Salmonella enterica; conditions: peptide 50 μM, Rho 50 nM, λtR1 RNA; SD of two to three measurements
[3] = system: Rho, M.tb; type: biochemical, Mycobacterium tuberculosis; conditions: peptide 50 μM, Rho 50 nM, poly(rC); SD of two to three measurements

| Sequence | Fraction of ATP Hydrolysed (%) [1] [%] | Fraction of ATP Hydrolysed (%) [2] [%] | Fraction of ATP Hydrolysed (%) [3] [%] |
| --- | --- | --- | --- |
| MHHHHHHTPAQFIFFRVKVRNWHTSVSVKAWLFWRMREDFQPDTD [peptide 33] | 14 ± 3 | 11 ± 0.5 | 23 ± 1 |
| MHHHHHHTPAQGMIFSVKVRTGITSVSVKAWLFWRMREDFQPDTD [peptide 16] | 17 ± 5 | 8 ± 0.8 | 28 ± 1 |

Ends that are not written are not given here.
